Test results from the supplement of paper PMC4604168 (melanoma cell lines).
This is one part of the list. Most values come without repeats; read them as rough.

Tested on: LOXIMVI
Assay: cell count relative to DMSO control; melanoma cells; higher = more viable cells
Conditions: library dose: standard library concentration; 72 h
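Further: cells treated in 1,536-well plates, then fixed and DAPI-stained, with nuclei counted from automated high-throughput microscope images.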

SMILES	cell count [%]
C[C@]1(O)C[C@@H](c2nc(-c3ccc4ccc(-c5ccccc5)nc4c3)c3c(N)nccn32)C1 + Nc1ncn([C@H]2C[C@H](O)[C@@H](CO)O2)c(=O)n1 [decitabine] (first compound 2 µM, partner dose 0.5 µM)	69.6
COc1cc([C@@H]2c3cc4c(cc3[C@@H](O[C@@H]3O[C@@H]5CO[C@@H](C)O[C@H]5[C@H](O)[C@H]3O)[C@H]3COC(=O)[C@H]23)OCO4)cc(OC)c1O [etoposide] + O=C(Nc1ccccc1)c1cc([N+](=O)[O-])ccc1Cl [GW9662] (first compound 0.1 µM, partner dose 10 µM)	63.9
CCN(CC)CCNC(=O)c1c(C)[nH]c(/C=C2\C(=O)Nc3ccc(F)cc32)c1C [sunitinib] + NC1(c2ccc(-c3nc4ccn5c(=O)[nH]nc5c4cc3-c3ccccc3)cc2)CCC1 [MK2206] (first compound 2 µM, partner dose 2 µM)	98.5
Cn1cnc2c(F)c(Nc3ccc(Br)cc3Cl)c(C(=O)NOCCO)cc21 [selumetinib] + COCC[n+]1c2c(n(Cc3cnccn3)c1C)C(=O)c1ccccc1C2=O [YM155] (first compound 0.075 µM, partner dose 0.002 µM)	69.2
Cn1cnc2c(F)c(Nc3ccc(Br)cc3Cl)c(C(=O)NOCCO)cc21 [selumetinib] + NC1(c2ccc(-c3nc4ccn5c(=O)[nH]nc5c4cc3-c3ccccc3)cc2)CCC1 [MK2206] (first compound 0.075 µM, partner dose 2 µM)	77.5
